Measurements as given in PubChem BioAssay AID651820 (National Center for Advancing Translational Sciences (NCATS), 2012).
The whole screen tested about 340,000 compounds, of which about 12,000 (3.5%) were called active. The shares of active, inactive and inconclusive entries below differ from those in the screen. The call rests on the fitted dose curve; in most records, active means well fitted inhibition curve with a large enough effect; inconclusive means small, poorly fitted or top-dose-only effect, or another doubt; inactive means no such curve, though single readings can be large or run the other way. No potency is given beside an inconclusive call; the fits are too rough.

assay: qHTS Assay for Inhibitors of Hepatitis C Virus (HCV); details: Huh7.5.1 HCVcc-Cre (HCVcc is cell-culture hepatitis C virus) infection, luciferase reporter, 44 h; activity change, negative = inhibition: at 41.8 µM (top of the series) unless noted
Method in brief: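 Seed cells (1,000/well) for 4 h; treat with compound and infect with HCVcc-Cre, moi about 0.5. Incubate 44 h, then detect luciferase activity.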
On the % scale 0 is the no-effect control and ±100 the full control effect; potency means the concentration at half of the fitted maximal effect; tags describe the fitted curve by direction and shape.

SMILES | Potency | activity change, negative = inhibition
O=C(Nc1ccccc1N1CCCCC1)C1CCN(C(=O)c2ccc(Cl)cc2)CC1 | inconclusive [inhibitor, full curve] | 
O=C(/C=C/c1cccc(F)c1)Nc1ccc(S(=O)(=O)N2CCOCC2)cc1 |  | inactive: -16.9%
OC(CNc1nc(-c2cccnc2)nc2ccccc12)c1ccccc1 (stereo not given) | inconclusive [inhibitor, partial curve] | 
COc1ccccc1-c1sc2ccccc2c1-c1ccc(C(C)=O)cc1 | inconclusive [inhibitor, partial curve] | 
Nc1ccc(S(=O)(=O)NC2(C(F)(F)F)NC(=O)N(Cc3ccccc3)C2=O)cc1 (stereo not given) |  | inactive: -0.243%
Cc1cccc(Cl)c1OCCN1CCCC1 | inconclusive [inhibitor, single point] | 
COc1cccc(-c2nn(-c3ccccc3)cc2C(=O)Nc2nccs2)c1 | inconclusive [inhibitor, single point] | 
Cc1ccc(C(=O)Nc2nc(-c3ccccn3)cs2)cc1S(=O)(=O)N1CCOCC1 | active: 5.62 µM | 
COc1cc(OC)c(NC(=O)CCCNC(=O)Cn2cnc3sc(C)c(C)c3c2=O)cc1Cl | inconclusive [inhibitor, full curve, poor fit] | 
CCC(=O)OCOc1ccc(/C=C2/CCC(CN(C)C)C2=O)cc1 (stereo not given) | inconclusive [inhibitor, single point] | 
Fc1ccc(-c2csc(NC3=NCCC3)n2)cc1 | inconclusive [inhibitor, single point] | 
Cc1cc(C)nc(NC(=O)/C=C/c2ccc3c(c2)OCO3)c1 | inconclusive [inhibitor, partial curve] | 
CN1CCN(C2CCN(c3cccc(Cl)c3)CC2)CC1CCO (stereo not given) |  | inactive: -5.71%
CC(C)CCNCC(O)CON=C1c2ccccc2-c2ccccc21 (stereo not given) | active: 8.91 µM | 
Cc1ccc(C)c(Nc2nc(-c3ccncc3)nc3ccccc23)c1 | active: 11.2 µM | 
CC(C)(C)C(=O)OC/C(N)=N/OC(=O)c1ccccc1 |  | inactive: 2.48%
CC1CCCCN1S(=O)(=O)c1ccc(NC(=O)c2ccco2)cc1 (stereo not given) |  | inactive: 3.01%
Cc1ccc(C)c(-c2nnc(OCC(=O)Nc3cc(C)on3)c3ccccc23)c1 | inconclusive [inhibitor, full curve, poor fit] | 

SMILES | Potency | activity change, negative = inhibition
CC(Oc1ccc2oc3ccccc3c2c1)C(=O)NC12CC3CC(CC(C3)C1)C2 (stereo not given) | inconclusive [inhibitor, single point] | 
CCN(CC)S(=O)(=O)c1cccc(NC(=O)c2cc3ccccc3o2)c1 | active: 10 µM | 
O=C(c1ccc(F)cc1)N1CCCCC(S(=O)(=O)c2ccccc2)C1=O (stereo not given) | inconclusive [inhibitor, full curve] | 
COc1ccc(S(=O)(=O)N2c3ccccc3OCC2CC(=O)O)cc1 (stereo not given) | inconclusive [inhibitor, single point] | 
N=C1SC(c2ccccc2)C(=O)N1c1ncc(Cc2ccccc2Cl)s1 (stereo not given) |  | inactive: -17.9%
CN(C)CCCC1Sc2ccccc2Sc2ccccc21 (stereo not given) | active: 15.8 µM | 
CCOC(=O)c1cc2c(=Cc3ccc(N(C)C)cc3)c3ccccc3n2[n+]1C | inconclusive [inhibitor, single point] | 
Cc1ccc(C)c(NCc2ccccc2CO)c1 |  | inactive: -5%
COc1cccc(OCCNC(=O)c2cc(OC)c(OC)c(OC)c2)c1 | inconclusive [inhibitor, single point] | 
CC(=O)Nc1ccc(Nc2cc(C)nc3c(-c4ccccc4)cnn23)cc1 | inconclusive [inhibitor, full curve] | 
COc1ccc(CN(C)C(=O)CCl)cc1 | inconclusive [inhibitor, single point] | 
CC1CC(=S)Nc2ccccc2N1C(=O)Nc1ccccc1 (stereo not given) |  | inactive: 20.5%
O=S1(=O)CCO[C@H]2Cc3ccccc3[C@H]2N1Cc1ccccc1Br | inconclusive [inhibitor, partial curve] | 
COC(=O)c1ccc(Cl)c(NC(=O)CN(c2ccc3c(c2)OCO3)S(C)(=O)=O)c1 | inconclusive [inhibitor, partial curve] | 
OCCNCc1cc(Br)ccc1OCc1ccc(Cl)cc1 | inconclusive [inhibitor, full curve] | 
CCOC(=O)c1[nH]c(C=O)c(C(=O)OCC)c1C | inconclusive [inhibitor, partial curve] | 
CC(=O)c1cccc(NC(=O)c2ccc(N(C)S(=O)(=O)c3ccc(C)cc3)cc2)c1 | inconclusive [inhibitor, single point] | 
